Results published in PubChem BioAssay (NCI).
Values joined by “and” are separate entries in the source; they are usually repeats but may differ in a detail not shown here. Equal values may be shown once.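 Where inhibition never reached the appropriate level, the endpoint shown equals the highest concentration tested. Otherwise, values were interpolated linearly from a five-concentration, 48-hour dose response in 96-well plates. GI50 = concentration required for 50% inhibition of growth. TGI denotes the concentration required for complete inhibition of growth.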

Tested on: NCI-H322M lung
Assay: NCI tumour cell line growth inhibition, 48 h

COc1ccc2nc3cc(Cl)ccc3c(N3CCN(c4ccnc(N5CCOCC5)n4)CC3)c2c1
GI50: > 100 µM | TGI: > 100 µM

COc1ccc2c(c1)c1c(n2CCN(C)C)-c2cccc(OC)c2CC1
TGI: 29.9 µM

CC1(C)CC(=O)C2=C(C1)S/C(=C1/SC3=C(S1)C(=O)CC(C)(C)C3)S2
TGI: > 251 µM

CCOC(=O)Nc1cc2c(c(N)n1)N=C(c1ccccc1)[C@H](C)N2
TGI: 30.2 µM

c1ccc(C2SCc3nc4cc5ccccc5cc4n32)cc1 (configuration not stated)
TGI: > 100 µM

COc1ccc(/C=C2\N=C3Sc4c(nc[nH]c4=O)N3C2=O)cc1
TGI: > 100 µM

O=C(O)CCSCc1ccc(I)cc1
TGI: > 100 µM

Cc1cnc(/C=N\NC(N)=S)c2cccc(N)c12
GI50: 4.77 µM | TGI: > 100 µM

CC(=O)c1cc2c(cc1Nc1c3ccccc3nc3occ(Cl)c13)OCO2
GI50: 0.123 µM | TGI: 2.18 µM

Nc1ccc(N=Nc2ccc(-c3ccc(O)cc3)cc2)c2ccc(S(=O)(=O)O)cc12
TGI: > 100 µM

Cc1nc2ccccc2c(=O)n1NC(=O)c1ccc([N+](=O)[O-])cc1
TGI: > 100 µM

CC(C)(C)CC(C)(C)c1cc2c(O)c(c1)Cc1cc(C(C)(C)CC(C)(C)C)cc(c1O)Cc1cc(C(C)(C)CC(C)(C)C)cc(c1O)Cc1cc(C(C)(C)CC(C)(C)C)cc(c1O)Cc1cc(C(C)(C)CC(C)(C)C)cc(c1O)Cc1cc(C(C)(C)CC(C)(C)C)cc(c1O)C2
TGI: > 100 µM

O=C(O)Cc1cccc2c1Oc1ccccc1S2
TGI: > 100 µM

CC(Oc1ccc(OCC2CCCCC2)cc1)C(N)=O (configuration not stated)
TGI: > 100 µM

CCOC(=O)C1=C(C)OC(=O)[C@@]2(OC)C=C(Cl)[C@@]12C
TGI: > 100 µM

COC1CCC(O)C(/C=C/[N+](=O)[O-])C1 (configuration not stated)
TGI: 24.2 µM

CN1C(=O)N/C(=C\c2ccc(S(=O)(=O)N/N=C\C(O)C(O)C(O)CO)cc2)C1=O (configuration not stated)
TGI: > 100 µM

O=C(c1ccccc1)c1ccc(OCCOc2ccc(Nc3ccccc3)cc2)cc1
TGI: > 100 µM

COC(=O)c1ccc(NC(=O)Nc2ccc3oc(=O)c4ccccc4c3c2)cc1
GI50: > 100 µM | TGI: > 100 µM

CCN1C(=O)NC(=O)C(C)(N2C(=O)c3c(F)c(F)c(F)c(F)c3C2=O)C1=O (configuration not stated)
GI50: 7.49 µM | TGI: 21.6 µM

O=C1c2ccccc2C(=O)c2c1ccc1nc3c(nc21)-c1c2ccccc2cc2cccc-3c12
TGI: > 100 µM

COc1ccc(C2=NN(C(=O)c3cc(OC)c(OC)c(OC)c3)C(c3ccc(Cl)cc3)C2)cc1OC (configuration not stated)
GI50: 18.1 µM | TGI: > 100 µM

Fc1ccc(OCc2nc3cc(C(F)(F)F)ccc3nc2-c2ccccc2)cc1
TGI: > 100 µM

COc1cnc2c(c1)C(=O)c1c-2n(CCCN2CCC(O)CC2)c(=O)c2cc(F)ccc12
GI50: 0.387 µM | TGI: 4.39 µM

Cc1ccc2nc(-c3ccc(-n4c(C)nc(=O)c(-c5ccc(F)cc5)c4C)cc3)sc2c1
TGI: 32.4 µM

CCCC[N+](CCCC)=c1ccc2nc3c(C)cc(N(CC)CC)cc3sc-2c1
GI50: 0.547 µM | TGI: 4.8 µM

Cc1ccc([N+](=O)[O-])cc1NC(=O)C(=O)C(C(=O)c1ccccc1F)C1OC(=O)c2ccccc21 (configuration not stated)
TGI: > 100 µM

CC(=O)O[C@]1(C)OC(=O)[C@@H](C)N1[N+](=O)[O-]
TGI: > 100 µM

O=C(O)CCC(=O)c1ccc2ccc3cccc4ccc1c2c34
TGI: > 100 µM

CC1(C)OC(C[C@]2(C#N)C[C@H](CCl)OC(C)(C)O2)C[C@@H](C[C@]2(C#N)C[C@H](CCl)OC(C)(C)O2)O1 (some centres not stated)
TGI: > 100 µM

Oc1ccc2oc3c(O)c4ccccc4cc3c2c1
TGI: > 100 µM

C[C@]12CCc3nonc3C1CC[C@@H]1C2CC[C@]2(C)NC(=O)CCC12 (some centres not stated)
TGI: > 100 µM

C/C(=C\C1=C(Cl)C(=O)c2ccccc2C1=O)C(=O)O
GI50: 19.1 µM | TGI: 40.1 µM

O=c1c2ccccc2n2n1CC(O)C2 (configuration not stated)
TGI: > 100 µM

CSCCC(N)P(C)(=O)O (configuration not stated)
TGI: > 100 µM

C=CC[P+](c1ccccc1)(c1ccccc1)c1ccccc1
GI50: 24.7 µM | TGI: > 100 µM

CC(=O)OC[C@@H]1[C@H]2CC[C@]3(C)[C@@H](OC(C)=O)CC[C@H]3[C@@H]2CC[C@H]1C1(C)SCCS1
TGI: > 25 µM

O=[N+]([O-])c1ccc2c(N3CCC(CCCC4CCN(c5ncnc6cc([N+](=O)[O-])ccc56)CC4)CC3)ncnc2c1
GI50: > 100 µM | TGI: > 100 µM

CC(C)(C)c1[nH]cnc1/C=c1\[nH]c(=O)/c(=C/c2ccccc2)[nH]c1=O
GI50: 0.0407 µM | TGI: 48.5 µM

Cc1ccc(Nc2n[nH]c(=S)s2)cc1
TGI: > 100 µM

CCC1(CCSC(=N)N)C(=O)NC(=O)NC1=O
TGI: > 100 µM

COC(=O)[C@H]1C[C@H]1NC(=O)C(CC(=O)OCc1ccccc1)NC(=O)OCc1ccccc1 (some centres not stated)
TGI: > 100 µM

COc1ccc(-c2nn(-c3cccc(NC(=O)c4ccc5c(c4)OCCO5)c3)cc2-c2ccncc2)cc1Cl
GI50: 5.29 µM | TGI: 59 µM

Cc1cnc(-c2c[nH]c3ccccc23)nc1-c1c[nH]c2ccccc12
TGI: 25.3 µM

Cc1cc2c(cc1C)[n+](=O)c(C#N)c(Cl)n2[O-]
TGI: 41.2 µM

O=C(Nc1ccc(Cl)cc1F)c1cc(I)ccc1O
GI50: 0.993 µM | TGI: 18.7 µM

Cc1cccc(C(=O)/C=C/SC(=NC#N)SCc2ccccc2)c1
GI50: 21.4 µM | TGI: 52.1 µM

C=CCCCC1SC2=C(CC)CCCN2C1=O (configuration not stated)
TGI: > 100 µM

CN1CCN(c2ccc3nc(-c4c(N)c5c(F)cccc5[nH]c4=O)[nH]c3c2)CC1
GI50: 0.675 µM and 0.411 µM and 0.898 µM | TGI: 4.81 µM and > 4.42 µM and 14.5 µM

O=c1oc2ccccc2c(O)c1C1c2c(c3ccccc3oc2=O)Oc2c1c(=O)oc1ccccc21
TGI: > 100 µM

CN(C)CCNC(=O)Cn1cc([N+](=O)[O-])c(=O)c2ccccc21
TGI: > 100 µM

Cn1nnnc1N/N=C/c1ccccc1
TGI: > 10 µM

COC(=O)Nc1nc2ccc(S(=O)(=O)n3nnc4ccccc43)cc2[nH]1
TGI: > 100 µM

N#Cc1nc(COCc2ccccc2)oc1N
TGI: > 100 µM

c1ccc(-c2cc(C3CO3)c3ccccc3n2)cc1 (configuration not stated)
TGI: 39.6 µM

CC(=O)O[C@H](C[C@H](C(C)C)N(C)C(=O)[C@@H](NC(=O)[C@H]1CCCCN1C)C(C)C)c1nc(C(=O)N[C@@H](Cc2ccccc2)C[C@H](C)C(=O)O)c(C(C)C)s1
GI50: < 0.00333 µM | TGI: > 33.3 µM

Cc1n[nH]c(=O)n1/N=C/c1cccs1
TGI: > 100 µM

CCOC(=O)C(C)(C(=O)OCC)/C(Cl)=C\Cl
TGI: 4.66 µM

O=C(CN1CCN(c2ccc(Cl)cc2)CC1)N1CCN(c2nnc(-c3ccc(Cl)cc3)c(-c3ccc(Cl)cc3)n2)CC1
GI50: > 100 µM | TGI: > 100 µM

O=c1ssc(Cl)c1Nc1c(Cl)ssc1=O
TGI: 38.9 µM

O=C(CC(C(=O)c1ccco1)c1cccs1)c1cccs1 (configuration not stated)
TGI: > 100 µM

CCOC(=O)/C=C/c1cc2cc(-c3csc4ccccc34)ccc2[nH]1
GI50: 10.4 µM | TGI: 22.4 µM

O=C1C(Cl)=C(N2C(=O)CCCC2=O)C(=O)c2ccccc21
TGI: > 100 µM

O=C([O][Hg][CH2]C1COC([CH2][Hg][O]C(=O)c2ccccc2)CO1)c1ccccc1 (configuration not stated)
GI50: 17.2 µM and 19 µM | TGI: 31.1 µM and 35.8 µM

O=C1c2ccccc2C(=O)c2c(NCCNCCO)ccc(O)c21
TGI: 11.1 µM

CCC1CN2CCC1CC2 (configuration not stated)
TGI: > 100 µM

C/C(=N\Oc1cc(Cl)ncn1)c1ccccn1
TGI: > 100 µM

O=C1C(c2c(O)[nH]c3ccc(S(=O)(=O)O)cc23)=Nc2ccc(Br)cc21
TGI: > 100 µM

CCN(CC)CCCNc1nc(=O)[nH]c(C)c1C(=O)Nc1c2ccccc2nc2ccccc12
TGI: 81.4 µM

Oc1ccc(O)c(-c2cc(-c3ccccc3)nn2-c2ccccc2)c1
GI50: 13.1 µM | TGI: 38.1 µM

Cc1ccc(S(=O)(=O)/N=C(\N)N(C)N=O)cc1
TGI: > 100 µM

O=C1/C(=C/c2ccc(Cl)cc2)N=C(c2ccccc2)N1c1nc2ccccc2s1
TGI: > 100 µM

C=CC(C)(O)/C=C/C=C(\C)C(CC1OC1(C)C)OC(=O)/C(C)=C\C (configuration not stated)
TGI: > 100 µM

Cc1c(C(=O)C/C(=N/NC(=O)C[n+]2ccccc2)C(=O)Nc2ccccc2)[n+](=O)c2ccccc2n1O
TGI: > 100 µM

O=C1C(C(c2ccccc2)N2CCOCC2)=C(O)C(c2ccccc2)N1c1ccccc1 (configuration not stated)
TGI: > 10 µM

C=CCn1c(C23CC4CC(CC(C4)C2)C3)n[nH]c1=S
TGI: > 100 µM

COc1cc(=O)n2c3ccccc3n(C)c2c1C#N
TGI: > 100 µM

O=[As](O)(O)c1ccc(N=Nc2ccc([As](=O)(O)O)cc2)cc1
TGI: > 100 µM

CCOC(=O)C(NCc1ccc2c(c1)OCO2)(NC(=O)c1ccccc1)C(F)(F)F (configuration not stated)
TGI: > 100 µM

COc1cc(/C=C/C(=O)OCCc2ccccc2)ccc1O
TGI: 30.5 µM

CN(Cc1cnc2nc(N)nc(N)c2n1)c1ccc(C(=O)NCS(=O)(=O)O)cc1
TGI: > 100 µM

O=C1c2ccccc2C(=Cc2ccccc2)c2ccccc21
GI50: 4.33 µM | TGI: 19 µM

CCCCOC(=O)NC(Nc1ccc(S(=O)(=O)Nc2ccc(OC)nn2)cc1)(C(F)(F)F)C(F)(F)F
TGI: > 100 µM

Cc1ccc(C)c(NC(=O)NCc2ccc(Cl)cc2)c1
TGI: > 100 µM

CCC(=O)N1NC(=O)C(CC)(CC)C1=O
TGI: > 100 µM

Oc1c2c(c3c4c1N=CC=4CCN=3)-c1c(Br)cc(Br)cc1CCN2
TGI: 2.89 µM

COc1ccc(N=Nc2c(-c3ccccc3)nn(C(=O)CC(=O)Nc3cccc(Cl)c3)c2-c2ccccc2)cc1
TGI: > 100 µM

O=P1(c2ccccc2)c2ccccc2CCc2ccccc21
TGI: > 100 µM

O1C2C1C1OC1C1OC1C1OC21 (configuration not stated)
TGI: > 100 µM

CN(C)c1ccc(/C=C(\C#N)c2nc3ccccc3n2C)cc1
GI50: 7.82 µM | TGI: > 100 µM

O=C(Nc1cccc(Oc2nnc(Cl)c3ccccc23)c1)Nc1ccc(Cl)c(C(F)(F)F)c1
GI50: 1.91 µM | TGI: 5.62 µM

CCCc1c[nH]c(-c2ccc(-c3cc(CCC)c(C=O)[nH]3)s2)c1
TGI: 29.7 µM

O=c1oc2nc(-c3ccccc3)cc(C(F)(F)F)c2n1Cc1ccccc1
TGI: > 100 µM

Nc1nncc2c1ccn2C1OC(CO)C(O)C1O (configuration not stated)
TGI: > 100 µM

COC(=O)C1=C(C(=O)OC)C23CC1C1C(C(=O)OC)=C(C(=O)OC)C12C1C=CC3C2C(=O)OC(=O)C21 (configuration not stated)
TGI: > 100 µM

CC(C)OC(=O)C1=C(O)c2ccccc2S(=O)(=O)N1
TGI: > 100 µM

O=C(O)C1=C(C(=O)O)N(c2ccncc2)C(c2ccco2)=CC1c1ccccc1[N+](=O)[O-] (configuration not stated)
TGI: 30.9 µM

CCSC1(SCC)CC(Cc2ccc(OC)cc2)N(C=NC(C)(C)C)C1 (configuration not stated)
TGI: > 100 µM

CCOC(=O)C1=C(O)CSC1=Nc1ccccc1
TGI: > 100 µM

CSC1=NC(C(N)=O)C(N)N1C (configuration not stated)
TGI: > 100 µM

COc1ccc2c(c1)C(=O)c1c-2c(Nc2ccc(C(C)=O)cc2)nc2ccccc12
GI50: 92.6 µM | TGI: > 100 µM

Cc1cccc2c(N)c3cccc(C(=O)NCC[N+](C)(C)Cc4sccc4[N+](=O)[O-])c3nc12
TGI: 92.6 µM
